Experimental data: article PMC10726135
The list shows a part of the results. At the low end of the ranking the order means little. Measured with an extract: partners may take part in the binding.

Each sequence was assayed against T1, HNF4alpha2 (COS-7 nuclear extract) (UniProt P41235) (assay: protein-binding microarray). Details: COS-7 nuclear extract on double-stranded Agilent 4x180k PBM; binding buffer, salt, pH and temperature not given; high values mean tight binding; double strand, one strand shown; sequences stand for … in …GCCTAGGGAGATTAGAGTATCGGTCGA.
T1 sequence: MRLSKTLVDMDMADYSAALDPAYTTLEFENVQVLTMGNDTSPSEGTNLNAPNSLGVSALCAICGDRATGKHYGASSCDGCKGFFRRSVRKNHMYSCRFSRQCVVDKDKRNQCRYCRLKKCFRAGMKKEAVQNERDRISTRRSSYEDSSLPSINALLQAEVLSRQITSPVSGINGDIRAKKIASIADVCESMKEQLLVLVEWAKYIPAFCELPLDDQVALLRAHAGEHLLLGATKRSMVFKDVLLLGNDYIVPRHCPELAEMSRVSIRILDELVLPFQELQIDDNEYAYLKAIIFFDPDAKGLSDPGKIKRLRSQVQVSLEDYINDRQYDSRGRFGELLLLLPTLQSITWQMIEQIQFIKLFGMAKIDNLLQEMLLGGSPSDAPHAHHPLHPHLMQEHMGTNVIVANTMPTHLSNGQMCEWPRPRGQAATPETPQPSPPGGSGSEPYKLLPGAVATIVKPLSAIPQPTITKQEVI

| Sequence | binding signal (log2 normalized intensity) |
| --- | --- |
| TCCTTGTTTTTTCATAGGCCTTTATTTGCT | -0.214 |
| CAAGCAAAAGCCAAGGCATCTGGGGGCTTG | -0.97 |
| ATGATAAGTAGACAGATCAGAGAGATTTTC | -1.08 |
| TCTGCTGTGCCGGGTATGTGGGGCGTGTGT | 2.58 |
| CAACTAGAGATAAACTTTTGATTGCTTAGG | -1.06 |
| GAAGATGCCACGCAATGCATAGCAGAAACA | -1.12 |
| CTATGAATGAAGTCTTTTCCATCGCCCTTA | 0.809 |
| GCTTCCTGGAGAAATGTCCGCCTGGTGTTT | 1.31 |
| CTCTAGAGTGGTTGCCTGTGAGTCAGGTAC | 1.43 |
| CAGGCTCATTCTAACCCAAATGCAAATACC | 0.932 |
| GATACGGCCTGGACTCCAAGCCCCAAAAAC | 1.45 |
| GAGGTGTTCTCTGGGGTTAGCCAAACAAAT | 1.03 |
| AAATGAGTTTCATTAGACAGAAACCAAGCT | -1.17 |
| TGGCCATGAAAGTATCCAGCTCCTCTTCAC | -1.1 |
| CCCGGCAGATCAGGGTCAGGCTGTGGTACG | 0.662 |
| AAGTGCCCGGATAAACTTCCAGCCATTTTG | -0.955 |
| TACTAATTTTGTTTCCTAGTTCAAACAGGC | 0.0737 |
| GGACTTCGAATGGTATGCTAGAGTACTTGG | 1.23 |

| Sequence | binding signal (log2 normalized intensity) |
| --- | --- |
| CTCCAGAAATACAGAAGCTGCTCTAAGAAT | -0.86 |
| CAGCGAAGCTGTGTCAGGCATTGTACTCAC | 1.35 |
| ATGCCTTAAGGGACCTCTTAGAAAAGTAGA | 0.286 |
| TGGATAGTGCCTTTTCTAATATCTACATGT | 1.47 |
| AGTCTAACCCAACTAAGAACACAGTCATTT | -0.997 |
| AAGTCCAATCTTCTGGCCCCATCTATCTAG | 1.52 |
| CACCTCCTTTGACCTGGGAATTCAAGGAAT | 0.614 |
| TCCAGGCTTGGAGCCCCTTTGGAGGGGAAG | -1.04 |
| TACTCACACTCAAGGCAAGAGAGTCATAAA | -1.02 |
| TTTCTCCAGTGCCCTTAGGGGCCGCATTGA | 0.73 |
| ACTGTTGCATCAAACAGCTTAGGGTTCAAA | 1.64 |
| AACAAGGTATGAGGCCAGTTTTCCTAAGGG | -1.1 |
| GCTCCAGAGAGCCAGATGAAGCTGCAGCCT | -1.26 |
| CAGGACACTTCTGAAAAAAATATTGAACAA | -0.256 |
| ACAAAAAGCGGACAAACCAGTCCCATCTGT | -1.17 |
| CAATGCAAATCCCAGAGTTCAAAGGCCAAA | 4.3 |
| TGAATGATCAAAGGTTGGTTTTTGGAGACA | 2.92 |
| AAATTACACTGGGAGGCAAATCTCTTGGTC | -0.205 |
